# Residue numbers refer to the chain shown, from its start. The list shows a part of the results.
# T1: RBFOX1 RRM (Homo sapiens, UniProt Q9NWB1 109-208)
# T1 sequence: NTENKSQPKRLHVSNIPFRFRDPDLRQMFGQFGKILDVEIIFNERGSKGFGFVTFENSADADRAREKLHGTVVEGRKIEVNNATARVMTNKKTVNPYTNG
# B1: CGAGCAU (DNA:RNA)
# RNA: GGGAGACCGGAAUUCAGAUUGUCCCGAGCAUUUAAAUCCCGUCGUAGCCACCA
# DNA 1: CAATCTGAATTCCGGTCTCCC
# DNA 2: TGGTGGCTACGACGGGATT
# B2: GCCCGCG (DNA:RNA)
# RNA: GGGAGACCGGAAUUCAGAUUGUCCGCCCGCGUUAAAUCCCGUCGUAGCCACCA
# DNA 1: CAATCTGAATTCCGGTCTCCC
# DNA 2: TGGTGGCTACGACGGGATT
# B3: CAUUGUA (DNA:RNA)
# RNA: B1 RNA with G26A, A27U, G28U, C29G, A30U, U31A
# DNA 1: CAATCTGAATTCCGGTCTCCC
# DNA 2: TGGTGGCTACGACGGGATT
# B4: UCACGUC (DNA:RNA)
# RNA: B2 RNA with G25U, C27A, C30U, G31C
# DNA 1: CAATCTGAATTCCGGTCTCCC
# DNA 2: TGGTGGCTACGACGGGATT
# B5: ACGAGUU (DNA:RNA)
# RNA: B2 RNA with G25A, C27G, C28A, C30U, G31U
# DNA 1: CAATCTGAATTCCGGTCTCCC
# DNA 2: TGGTGGCTACGACGGGATT
# B6: GCAUUAA (DNA:RNA)
# RNA: B1 RNA with C25G, G26C, G28U, C29U, U31A
# DNA 1: CAATCTGAATTCCGGTCTCCC
# DNA 2: TGGTGGCTACGACGGGATT
# B7: CGGGUCG (DNA:RNA)
# RNA: B1 RNA with A27G, C29U, A30C, U31G
# DNA 1: CAATCTGAATTCCGGTCTCCC
# DNA 2: TGGTGGCTACGACGGGATT
# B8: GCGGUGC (DNA:RNA)
# RNA: B2 RNA with C27G, C28G, G29U, C30G, G31C
# DNA 1: CAATCTGAATTCCGGTCTCCC
# DNA 2: TGGTGGCTACGACGGGATT
# B9: CCCUAAG (DNA:RNA)
# RNA: B2 RNA with G25C, C28U, G29A, C30A
# DNA 1: CAATCTGAATTCCGGTCTCCC
# DNA 2: TGGTGGCTACGACGGGATT
# B10: UAAGUGA (DNA:RNA)
# RNA: B1 RNA with C25U, G26A, C29U, A30G, U31A
# DNA 1: CAATCTGAATTCCGGTCTCCC
# DNA 2: TGGTGGCTACGACGGGATT
# B11: AGGCUUA (DNA:RNA)
# RNA: B1 RNA with C25A, A27G, G28C, C29U, A30U, U31A
# DNA 1: CAATCTGAATTCCGGTCTCCC
# DNA 2: TGGTGGCTACGACGGGATT
# B12: GUCGGAU (DNA:RNA)
# RNA: B1 RNA with C25G, G26U, A27C, C29G
# DNA 1: CAATCTGAATTCCGGTCTCCC
# DNA 2: TGGTGGCTACGACGGGATT
# B13: UGAAAGG (DNA:RNA)
# RNA: B1 RNA with C25U, G28A, C29A, A30G, U31G
# DNA 1: CAATCTGAATTCCGGTCTCCC
# DNA 2: TGGTGGCTACGACGGGATT
# B14: CUGAGGA (DNA:RNA)
# RNA: B1 RNA with G26U, A27G, G28A, C29G, A30G, U31A
# DNA 1: CAATCTGAATTCCGGTCTCCC
# DNA 2: TGGTGGCTACGACGGGATT
# B15: GUGAUUA (DNA:RNA)
# RNA: B2 RNA with C26U, C27G, C28A, G29U, C30U, G31A
# DNA 1: CAATCTGAATTCCGGTCTCCC
# DNA 2: TGGTGGCTACGACGGGATT
# B16: AUCGCAA (DNA:RNA)
# RNA: B1 RNA with C25A, G26U, A27C, U31A
# DNA 1: CAATCTGAATTCCGGTCTCCC
# DNA 2: TGGTGGCTACGACGGGATT
# B17: CGGCUGA (DNA:RNA)
# RNA: B1 RNA with A27G, G28C, C29U, A30G, U31A
# DNA 1: CAATCTGAATTCCGGTCTCCC
# DNA 2: TGGTGGCTACGACGGGATT
# B18: CGAUGUA (DNA:RNA)
# RNA: B1 RNA with G28U, C29G, A30U, U31A
# DNA 1: CAATCTGAATTCCGGTCTCCC
# DNA 2: TGGTGGCTACGACGGGATT
# B19: UAUGUAA (DNA:RNA)
# RNA: B1 RNA with C25U, G26A, A27U, C29U, U31A
# DNA 1: CAATCTGAATTCCGGTCTCCC
# DNA 2: TGGTGGCTACGACGGGATT
# B20: UCAAAUA (DNA:RNA)
# RNA: B1 RNA with C25U, G26C, G28A, C29A, A30U, U31A
# DNA 1: CAATCTGAATTCCGGTCTCCC
# DNA 2: TGGTGGCTACGACGGGATT
# B21: CAAAUCU (DNA:RNA)
# RNA: B1 RNA with G26A, G28A, C29U, A30C
# DNA 1: CAATCTGAATTCCGGTCTCCC
# DNA 2: TGGTGGCTACGACGGGATT
# B22: AUUCGGU (DNA:RNA)
# RNA: B2 RNA with G25A, C26U, C27U, C30G, G31U
# DNA 1: CAATCTGAATTCCGGTCTCCC
# DNA 2: TGGTGGCTACGACGGGATT
# B23: UCAGGCA (DNA:RNA)
# RNA: B2 RNA with G25U, C27A, C28G, G31A
# DNA 1: CAATCTGAATTCCGGTCTCCC
# DNA 2: TGGTGGCTACGACGGGATT
# B24: AGAUGCA (DNA:RNA)
# RNA: B1 RNA with C25A, G28U, C29G, A30C, U31A
# DNA 1: CAATCTGAATTCCGGTCTCCC
# DNA 2: TGGTGGCTACGACGGGATT
# B25: UCGGAUG (DNA:RNA)
# RNA: B2 RNA with G25U, C27G, C28G, G29A, C30U
# DNA 1: CAATCTGAATTCCGGTCTCCC
# DNA 2: TGGTGGCTACGACGGGATT
# B26: ACACAAA (DNA:RNA)
# RNA: B1 RNA with C25A, G26C, G28C, C29A, U31A
# DNA 1: CAATCTGAATTCCGGTCTCCC
# DNA 2: TGGTGGCTACGACGGGATT
# B27: CAAGACG (DNA:RNA)
# RNA: B1 RNA with G26A, C29A, A30C, U31G
# DNA 1: CAATCTGAATTCCGGTCTCCC
# DNA 2: TGGTGGCTACGACGGGATT
# B28: UUAGAUG (DNA:RNA)
# RNA: B1 RNA with C25U, G26U, C29A, A30U, U31G
# DNA 1: CAATCTGAATTCCGGTCTCCC
# DNA 2: TGGTGGCTACGACGGGATT
# B29: UCACAAA (DNA:RNA)
# RNA: B1 RNA with C25U, G26C, G28C, C29A, U31A
# DNA 1: CAATCTGAATTCCGGTCTCCC
# DNA 2: TGGTGGCTACGACGGGATT
# B30: GAUAUUG (DNA:RNA)
# RNA: B2 RNA with C26A, C27U, C28A, G29U, C30U
# DNA 1: CAATCTGAATTCCGGTCTCCC
# DNA 2: TGGTGGCTACGACGGGATT
# B31: AAUGACA (DNA:RNA)
# RNA: B1 RNA with C25A, G26A, A27U, C29A, A30C, U31A
# DNA 1: CAATCTGAATTCCGGTCTCCC
# DNA 2: TGGTGGCTACGACGGGATT
# Target: T1, RBFOX1 RRM
# Experiment: EMSA; HiTS-Eq, 1 nM pool, 10 min; buffer printed only for the single-RNA assays: 10 mM Tris pH 7.5, 150 mM NaCl, 3.4 mM EDTA, 0.001% NP-40, 30 C
# Settings: tags: His6 N-terminal (pET28a); label: 5' 32P
# Procedure, shortened: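 Purified RbFox RRM, wild type or mutant, was incubated for 10 min in 50 µL with 1 nM of a 5′-radiolabelled RNA pool carrying 7 randomized nucleotides, whose flanks were annealed to DNA oligonucleotides, over a series of increasing protein concentrations. Unbound RNA was resolved on 8% native PAGE, cut out, reverse-transcribed, barcoded by PCR and sequenced on an Illumina HiSeq 2500. Relative association constants were derived from changes in read counts for each RNA species versus the control reaction and normalised to the cognate motif.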
row,Binder,binding signal
1,B1,0.00976 KA relative to UGCAUGU
2,B2,0.0199 KA relative to UGCAUGU
3,B3,0.00259 KA relative to UGCAUGU
4,B4,0.00782 KA relative to UGCAUGU
5,B5,0.00796 KA relative to UGCAUGU
6,B6,0.00489 KA relative to UGCAUGU
7,B7,0.0322 KA relative to UGCAUGU
8,B8,0.0236 KA relative to UGCAUGU
9,B9,0.00296 KA relative to UGCAUGU
10,B10,0.0103 KA relative to UGCAUGU
11,B11,0.0058 KA relative to UGCAUGU
12,B12,0.00831 KA relative to UGCAUGU
13,B13,0.0102 KA relative to UGCAUGU
14,B14,0.007 KA relative to UGCAUGU
15,B15,0.00845 KA relative to UGCAUGU
16,B16,0.00515 KA relative to UGCAUGU

row,Binder,binding signal
1,B17,0.022 KA relative to UGCAUGU
2,B18,0.00582 KA relative to UGCAUGU
3,B19,0.0122 KA relative to UGCAUGU
4,B20,0.0028 KA relative to UGCAUGU
5,B21,0.00044 KA relative to UGCAUGU
6,B22,0.00855 KA relative to UGCAUGU
7,B23,0.0133 KA relative to UGCAUGU
8,B24,0.0164 KA relative to UGCAUGU
9,B25,0.0118 KA relative to UGCAUGU
10,B26,0.000724 KA relative to UGCAUGU
11,B27,0.00393 KA relative to UGCAUGU
12,B28,0.0112 KA relative to UGCAUGU
13,B29,0.00202 KA relative to UGCAUGU
14,B30,0.0154 KA relative to UGCAUGU
15,B31,0.000963 KA relative to UGCAUGU
